The record followed here is paper PMC4336329 (PLoS ONE, 2015).

The whole screen tested about 310,000 compounds, of which about 2,200 (0.71%) showed an effect of 50% or more. The effect is printed as a negative number. Some of the results follow.

human ether-à-go-go-related gene (hERG) potassium channel, sequence (Q12809 whole entry, looked up): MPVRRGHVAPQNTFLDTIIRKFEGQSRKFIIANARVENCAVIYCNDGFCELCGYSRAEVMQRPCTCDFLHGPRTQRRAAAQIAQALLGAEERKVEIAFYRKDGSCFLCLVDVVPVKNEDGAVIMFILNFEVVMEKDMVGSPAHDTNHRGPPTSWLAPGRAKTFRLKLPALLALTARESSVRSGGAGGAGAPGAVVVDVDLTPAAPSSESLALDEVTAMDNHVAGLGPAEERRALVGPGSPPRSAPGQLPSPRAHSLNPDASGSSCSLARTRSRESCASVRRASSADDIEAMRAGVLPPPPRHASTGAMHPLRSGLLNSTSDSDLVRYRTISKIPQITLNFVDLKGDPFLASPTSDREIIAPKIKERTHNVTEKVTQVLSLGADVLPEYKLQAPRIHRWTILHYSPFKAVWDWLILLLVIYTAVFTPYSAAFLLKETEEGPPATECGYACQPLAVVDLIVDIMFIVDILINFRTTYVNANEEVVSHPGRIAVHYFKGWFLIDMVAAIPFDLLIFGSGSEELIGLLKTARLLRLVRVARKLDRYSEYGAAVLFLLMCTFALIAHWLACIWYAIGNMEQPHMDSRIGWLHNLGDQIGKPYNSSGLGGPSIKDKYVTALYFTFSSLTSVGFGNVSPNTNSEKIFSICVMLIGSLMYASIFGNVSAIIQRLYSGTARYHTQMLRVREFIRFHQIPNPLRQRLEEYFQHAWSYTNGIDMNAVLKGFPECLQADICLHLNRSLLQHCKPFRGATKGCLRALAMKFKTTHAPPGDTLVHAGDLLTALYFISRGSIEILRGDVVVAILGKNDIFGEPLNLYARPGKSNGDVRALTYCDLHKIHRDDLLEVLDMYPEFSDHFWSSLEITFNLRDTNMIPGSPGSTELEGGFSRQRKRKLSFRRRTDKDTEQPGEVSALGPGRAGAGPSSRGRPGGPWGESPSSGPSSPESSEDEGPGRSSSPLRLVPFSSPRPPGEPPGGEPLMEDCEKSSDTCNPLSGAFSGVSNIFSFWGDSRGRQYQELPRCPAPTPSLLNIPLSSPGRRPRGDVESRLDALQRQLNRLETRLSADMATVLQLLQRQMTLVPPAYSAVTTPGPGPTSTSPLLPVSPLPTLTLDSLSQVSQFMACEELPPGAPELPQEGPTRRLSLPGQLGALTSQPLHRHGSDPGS

This test concerns the target human ether-à-go-go-related gene (hERG) potassium channel (human, UniProt Q12809). Put plainly: primary screen, population patch clamp on CHO cells stably expressing hERG.
Regarding `COc1ccc2c(c1)c1nc3n(c(=O)c1n2CC(=O)Nc1cc(C)[nH]n1)CCS3`, the “hERG current change (%, negative = inhibition) at 1uM” value was determined as 10.2%.
For `Cc1ccccc1C(=O)NNC(=O)C12CC3CC(CC(C3)C1)C2` the value was 4.29%; for `C#CC(C)(CC)NC(=O)c1cc2cccc(CC=C)c2oc1=O` (stereo not shown), 12.6%; for `O=C(C1CC=CCC1)N1CCC(CO)(Cc2ccc(Cl)cc2)CC1` (stereo not shown), 5.11%.
Take `Cc1nccn1C(c1ccccc1)c1ccccc1.O=C(O)C(=O)O`: the “hERG current change (%, negative = inhibition) at 1uM” value turned out to be 3.31%.
Take `CCN(CC)S(=O)(=O)c1ccc(NCCCn2ccnc2)c([N+](=O)[O-])c1`: the “hERG current change (%, negative = inhibition) at 1uM” value is on record as -7.58%.
With `Cc1ccccc1CC1(CO)CCCN(C(=O)c2ccc(F)cc2)C1` (stereo not shown), the “hERG current change (%, negative = inhibition) at 1uM” value amounted to 8.9%.
As to `COc1cccc(NC(=O)CSc2nc(C3CC3)nc3ccccc23)c1`, the “hERG current change (%, negative = inhibition) at 1uM” value was 10.1%.
For `Oc1c(C(Nc2nc3ccccc3s2)c2ccco2)ccc2cccnc12` (stereo not shown) the value was 13%; for `Cc1cccc(C(=O)Oc2c(Br)cc(Br)cc2/C=N/NC(=O)c2ccncc2)c1`, 4.15%; for `Cc1ccc(C2(c3noc(CN(C)CCO)n3)CCCC2)cc1`, 7.5%.
For the compound `CCN(CC)CCNC(=O)c1ccc(NC(=O)c2ccc3c(c2)CCC3)cc1`, the “hERG current change (%, negative = inhibition) at 1uM” value is given as -4.95%.
`CCCCNc1c(C(=O)OCC)c(=O)[nH]c2ccccc12`: the “hERG current change (%, negative = inhibition) at 1uM” value is listed as 4.5%.
On to `CCOC(=O)COc1ccc(Br)cc1/C=C1\SC(N)=NC1=O`, for which the “hERG current change (%, negative = inhibition) at 1uM” value was found to be 10.4%.
Consider `Clc1cccc(CSc2nnc(-c3sccc3-n3cccc3)o2)c1`, for which the “hERG current change (%, negative = inhibition) at 1uM” value is on record as 5.01%.
On to `O=C(c1cc2ccccc2o1)c1nc2c(n1O)CCCCC2`, for which the “hERG current change (%, negative = inhibition) at 1uM” value is listed as 9.78%.
In the case of `c1ccc(-c2noc(C3CCC3)n2)nc1`, the “hERG current change (%, negative = inhibition) at 1uM” value is on record as 10.2%.
Take `O=C(COC(=O)CCSc1ccccc1Cl)NCc1ccco1`: the “hERG current change (%, negative = inhibition) at 1uM” value was 12.7%.
For the compound `CCNC(=O)CC1C(=O)N(c2ccc(F)cc2)C(=O)N1Cc1ccc(OC)cc1` (stereo not shown), the “hERG current change (%, negative = inhibition) at 1uM” value is 2.24%.
In the case of `Cc1ccc(OCC(=O)N2CCOCC2)cc1C` it was 8.63%; in that of `Cc1onc(-c2ccccc2)c1C(=O)OCC(=O)Nc1cccc(Cl)c1`, -5.49%; in that of `COc1ccc2ccc(OC)c(/C=N/n3cnnc3)c2c1`, 13.1%.
Regarding `C/C(=N/NC(=O)c1ccoc1C)c1cccc(NC(=O)C2CC2)c1`, the “hERG current change (%, negative = inhibition) at 1uM” value is recorded as 2.45%.
In the case of `O=C(O)c1ccc(N2C(=O)CC(N3CCN(c4cccc(C(F)(F)F)c4)CC3)C2=O)cc1` (stereo not shown) it was 5.87%; in that of `Cc1ccc(C)c(NC(=S)N(C)CCO)c1`, 12.2%; in that of `CC(C)(C)c1ccc(C(=O)NC2CCS(=O)(=O)C2)cc1` (stereo not shown), 5.86%.
In the case of `COc1ccc(C(C(=O)NC2CCCC2)N(C(=O)c2ccoc2C)c2ccc(C)c(C)c2)cc1` (stereo not shown), the “hERG current change (%, negative = inhibition) at 1uM” value was 14%.
As for `N#C/C(=C/c1ccc(-c2ccc(S(N)(=O)=O)cc2)o1)C(=O)Nc1ccccc1`, the “hERG current change (%, negative = inhibition) at 1uM” value is -5.9%.
Consider `CCn1nc(C(=O)NNC(=O)CCOc2cc(C)ccc2C)c2ccccc2c1=O`, for which the “hERG current change (%, negative = inhibition) at 1uM” value is given as -27.3%.
On to `Cc1onc(-c2ccccc2)c1C(=O)NNC(=O)c1ccccc1`, for which the “hERG current change (%, negative = inhibition) at 1uM” value stood at 9.07%.
With `CC(=O)Nc1ccc(NC(=O)C/C(C)=N/NC(=O)C(=O)N2CCCC2)cc1`, the “hERG current change (%, negative = inhibition) at 1uM” value worked out at 10.4%.
As for `O=C(NCCN1CCOCC1)c1cccc(Cl)c1`, the “hERG current change (%, negative = inhibition) at 1uM” value is 2.76%.
Take `COC(=O)C1=NN(C(C)=O)C2(CC(=O)N(c3cccc(C)c3)C2=O)C1` (stereo not shown): the “hERG current change (%, negative = inhibition) at 1uM” value is listed as 11.3%.
With `O=C(CSc1ncn(-c2ccccc2)n1)Nc1nc2c(s1)CCCC2`, the “hERG current change (%, negative = inhibition) at 1uM” value was -12.1%.
Take `CCCC/C=C/C(NC(=O)c1ccc(C(=O)OC)cc1)c1ccccc1` (stereo not shown): the “hERG current change (%, negative = inhibition) at 1uM” value amounted to 16%.
For `COCCNC(=O)c1ccc2c(Cl)c3c(nc2c1)CCC3`, the “hERG current change (%, negative = inhibition) at 1uM” value was -3.41%.
With `Cc1nn2cc(-c3ccc(Cl)cc3)cnc2c1Cl`, the “hERG current change (%, negative = inhibition) at 1uM” value is 13.1%.
Turning to `CC(C)C[C@H](NC(=O)c1[nH]cnc1C(=O)N[C@@H](C)C(=O)OCc1ccccc1)C(=O)OC(C)(C)C`, the “hERG current change (%, negative = inhibition) at 1uM” value is listed as 12.7%.
In the case of `O=C(N/N=C/c1ccccc1Cl)c1ccncc1`, the “hERG current change (%, negative = inhibition) at 1uM” value amounted to 5.49%.
As for `O=c1cnn([C@@H]2O[C@H](CO)[C@@H](O)[C@H]2O)c(=O)[nH]1`, the “hERG current change (%, negative = inhibition) at 1uM” value is recorded as 10.6%.
Regarding `Fc1ccccc1N1CCN(Cc2nc(-c3ccc(Cl)cc3Cl)no2)CC1`, the “hERG current change (%, negative = inhibition) at 1uM” value came out at 2.62%.
`CN(Cc1ccc(Cl)c(Cl)c1)C(=O)C1CSC2(C)CCC(=O)N12` (stereo not shown): the “hERG current change (%, negative = inhibition) at 1uM” value is 2.49%.
For `Cc1c(CCC(=O)O)c(=O)oc2cc(O)ccc12`, the “hERG current change (%, negative = inhibition) at 1uM” value amounted to 11%.
